Source: a collection of fitness landscapes (doi:10.1126/science.1257360)
The list shows a part of the results.

B1: PhoQ; a variant is named by its letters at X, in order, P23837 (parent)
chain: MKKLLRLFFPLSLRVRFLLATAAVVLVLSLAYGMVALIGYSVSFDKTTFRLLRGESNLFYTLAKWENNKLHVELPENIDKQSPTMTLIYDENGQLLWAQRDVPWLMKMIQPDWLKSNGFHEIEADVNDTSLLLSGDHSIQQQLQEVREDDDDAEMTHSVAVNVYPATSRMPKLTIVVVDTIPVELKSSYMVWSWFIYVLSANLLLVIPLLWVAAWWSLRPIEALAKEVRELEEHNRELLNPATTRELTSLVRNLNRLLKSERERYDKYRTTLTDLTHSLKTPLXXLQXXLRSLRSEKMSVSDAEPVMLEQISRISQQIGYYLHRASMRGGTLLSRELHPVAPLLDNLTSALNKVYQRKGVNISLDISPEISFVGEQNDFVEVMGNVLDNACKYCLEFVEISARQTDEHLYIVVEDDGPGIPLSKREVIFDRGQRVDTLRPGQGVGLAVAREITEQYEGKIVAGESMLGGARMEVIFGRQHSAPKDE

Variants of: B1
Assay: enrichment ratio after two sorts for PhoP signalling (ratio (wild type AVST 3.29)); higher = more functional
Conditions: with PhoP (E. coli)
With QLPP the enrichment ratio was ≤ 0.25. In the case of WPCQ, the enrichment ratio is reported as ≤ 0.25. In the case of VDIV, the enrichment ratio is reported as ≤ 0.25. With EDGY the enrichment ratio was ≤ 0.25. Variant RCFL has an enrichment ratio of 0.39. With LRMP the enrichment ratio was ≤ 0.25. MALY was tested, and the enrichment ratio was 0.548. For KAES, the enrichment ratio was ≤ 0.25. With HLLN the enrichment ratio was ≤ 0.25. With YETR the enrichment ratio was ≤ 0.25. In the case of LPHW, the enrichment ratio is reported as ≤ 0.25. For KCMH, the enrichment ratio was ≤ 0.25. SYAQ was tested, and the enrichment ratio was ≤ 0.25. For RTPK, the enrichment ratio was ≤ 0.25. RMAT was tested, and the enrichment ratio was ≤ 0.25. FCLT gave an enrichment ratio of 1.39. YVSQ was tested, and the enrichment ratio was ≤ 0.25. With SDRR the enrichment ratio was ≤ 0.25. With INED the enrichment ratio was ≤ 0.25. With ICKV the enrichment ratio was ≤ 0.25. With SMRQ the enrichment ratio was ≤ 0.25. With MEYE the enrichment ratio was ≤ 0.25. In the case of PPPH, the enrichment ratio is reported as ≤ 0.25. PIYH was tested, and the enrichment ratio was ≤ 0.25. With KRGR the enrichment ratio was ≤ 0.25. In the case of THLW, the enrichment ratio is reported as ≤ 0.25. IGSY was tested, and the enrichment ratio was ≤ 0.25. Work on GIAY yielded an enrichment ratio of 4.02. With NMCH the enrichment ratio was ≤ 0.25. In the case of TQPS, the enrichment ratio is reported as ≤ 0.25. ISSV gave an enrichment ratio of 0.418. In the case of FQNG, the enrichment ratio is reported as ≤ 0.25. In the case of WNSA, the enrichment ratio is reported as ≤ 0.25. With NDPI the enrichment ratio was ≤ 0.25. In the case of AFWK, the enrichment ratio is reported as ≤ 0.25. Variant HKLV has an enrichment ratio of 0.341. With SDLS the enrichment ratio was 5.57. With PGRM the enrichment ratio was ≤ 0.25. In the case of TWSE, the enrichment ratio is reported as ≤ 0.25. SKHM was tested, and the enrichment ratio was ≤ 0.25. In the case of YSMD, the enrichment ratio is reported as ≤ 0.25. In the case of IQSQ, the enrichment ratio is reported as ≤ 0.25. With FPHL the enrichment ratio was ≤ 0.25. With KVQV the enrichment ratio was ≤ 0.25. For HQQS, the enrichment ratio was ≤ 0.25. For AQTI, the enrichment ratio was 3.65. GCSQ was tested, and the enrichment ratio was 0.849. For DWKH, the enrichment ratio was ≤ 0.25. In the case of IICS, the enrichment ratio is reported as ≤ 0.25. With YDHG the enrichment ratio was ≤ 0.25. In the case of TMVG, the enrichment ratio is reported as ≤ 0.25. With PHPV the enrichment ratio was ≤ 0.25. EYWH was tested, and the enrichment ratio was ≤ 0.25. With IMLP the enrichment ratio was ≤ 0.25. GKHD was tested, and the enrichment ratio was ≤ 0.25. With FARP the enrichment ratio was ≤ 0.25. DTTH was tested, and the enrichment ratio was ≤ 0.25. With SPYH the enrichment ratio was ≤ 0.25. For VEPT, the enrichment ratio was ≤ 0.25. DLFP was tested, and the enrichment ratio was ≤ 0.25. For STGW, the enrichment ratio was ≤ 0.25. AIFS was tested, and the enrichment ratio was ≤ 0.25. For EFMF, the enrichment ratio was ≤ 0.25. With TRNR the enrichment ratio was ≤ 0.25. In the case of PQYR, the enrichment ratio is reported as ≤ 0.25. In the case of GLDP, the enrichment ratio is reported as ≤ 0.25. SILH gave an enrichment ratio of 3.1. In the case of MYRM, the enrichment ratio is reported as ≤ 0.25. In the case of NPKS, the enrichment ratio is reported as ≤ 0.25. In the case of RKRY, the enrichment ratio is reported as ≤ 0.25. QFTF was tested, and the enrichment ratio was ≤ 0.25. In the case of PNFC, the enrichment ratio is reported as ≤ 0.25. For IMKI, the enrichment ratio was ≤ 0.25. For EDYN, the enrichment ratio was ≤ 0.25. In the case of PEFF, the enrichment ratio is reported as ≤ 0.25. SRRT was tested, and the enrichment ratio was ≤ 0.25. For GYEM, the enrichment ratio was ≤ 0.25. With RNHH the enrichment ratio was ≤ 0.25. With LDSW the enrichment ratio was 0.344. For GYCM, the enrichment ratio was ≤ 0.25. LNMQ was tested, and the enrichment ratio was ≤ 0.25. For QPMM, the enrichment ratio was ≤ 0.25. QRNM was tested, and the enrichment ratio was ≤ 0.25. LSYV showed an enrichment ratio of 4. For QQYQ, the enrichment ratio was ≤ 0.25. In the case of SSGM, the enrichment ratio is reported as 13.4. Variant SCSR has an enrichment ratio of 6.9. In the case of SDPE, the enrichment ratio is reported as ≤ 0.25. In the case of WDTE, the enrichment ratio is reported as ≤ 0.25. PWAM was tested, and the enrichment ratio was ≤ 0.25. With YVWR the enrichment ratio was ≤ 0.25. In the case of VAIA, the enrichment ratio is reported as ≤ 0.25. In the case of GITA, the enrichment ratio is reported as 7.39. With DVLN the enrichment ratio was ≤ 0.25. For RFCI, the enrichment ratio was ≤ 0.25. For DATE, the enrichment ratio was ≤ 0.25. WEYT was tested, and the enrichment ratio was ≤ 0.25. SMMR gave an enrichment ratio of 2.27. With YKRP the enrichment ratio was ≤ 0.25. ETDQ was tested, and the enrichment ratio was ≤ 0.25. For LRNK, the enrichment ratio was ≤ 0.25. In the case of REPY, the enrichment ratio is reported as ≤ 0.25. For GWRN, the enrichment ratio was ≤ 0.25. RYGD was tested, and the enrichment ratio was ≤ 0.25. ECVL was tested, and the enrichment ratio was ≤ 0.25. With VWWA the enrichment ratio was ≤ 0.25. For MLWM, the enrichment ratio was ≤ 0.25. With NRLT the enrichment ratio was ≤ 0.25. GYVS was tested, and the enrichment ratio was ≤ 0.25. LLSK was tested, and the enrichment ratio was ≤ 0.25. WFEA was tested, and the enrichment ratio was ≤ 0.25. VFEY was tested, and the enrichment ratio was 0.839. With PIQS the enrichment ratio was ≤ 0.25. LFYG was tested, and the enrichment ratio was ≤ 0.25. In the case of ISDH, the enrichment ratio is reported as ≤ 0.25. With VDHQ the enrichment ratio was ≤ 0.25. With MDNC the enrichment ratio was ≤ 0.25. AALS was tested, and the enrichment ratio was 9.98. In the case of WRCK, the enrichment ratio is reported as ≤ 0.25. For LDWR, the enrichment ratio was ≤ 0.25. In the case of GFEY, the enrichment ratio is reported as ≤ 0.25. For TQNM, the enrichment ratio was 5.21. For QHAT, the enrichment ratio was ≤ 0.25. For NKDQ, the enrichment ratio was ≤ 0.25. MKFG was tested, and the enrichment ratio was ≤ 0.25. For SKQD, the enrichment ratio was ≤ 0.25. For QIID, the enrichment ratio was ≤ 0.25. With FMCT the enrichment ratio was ≤ 0.25. KHLC was tested, and the enrichment ratio was ≤ 0.25. For NNNL, the enrichment ratio was ≤ 0.25. KQWY was tested, and the enrichment ratio was ≤ 0.25. In the case of NDCD, the enrichment ratio is reported as ≤ 0.25. In the case of WNGS, the enrichment ratio is reported as ≤ 0.25. In the case of LKEW, the enrichment ratio is reported as ≤ 0.25. HACL was tested, and the enrichment ratio was ≤ 0.25. For KFMW, the enrichment ratio was ≤ 0.25. In the case of NQCY, the enrichment ratio is reported as ≤ 0.25. In the case of SYYW, the enrichment ratio is reported as ≤ 0.25. For TNKK, the enrichment ratio was ≤ 0.25. In the case of MHTM, the enrichment ratio is reported as ≤ 0.25. In the case of FAWL, the enrichment ratio is reported as ≤ 0.25. WTWL was tested, and the enrichment ratio was ≤ 0.25. With AICD the enrichment ratio was 5.13. For HVWV, the enrichment ratio was ≤ 0.25. With GKWK the enrichment ratio was ≤ 0.25. With THWD the enrichment ratio was ≤ 0.25. In the case of IEDN, the enrichment ratio is reported as ≤ 0.25. In the case of AHSG, the enrichment ratio is reported as 6.86. MVCI was tested, and the enrichment ratio was ≤ 0.25. For ALAR, the enrichment ratio was ≤ 0.25. With TVDC the enrichment ratio was ≤ 0.25. DPGS was tested, and the enrichment ratio was ≤ 0.25. For YAVN, the enrichment ratio was ≤ 0.25.
